Measurements reported in the supplement of paper PMC8728848.
Some of the results follow.

Legend:
Assay in all cases: glycan array binding signal (z-score within array); higher = stronger binding
Settings in all cases: glycan notation: IUPAC condensed, linker removed
[1] = target: Neu5Ac(a2-6)Gal(b1-4)GlcNAc(b1-2)Man(a1-3)[Gal(b1-4)GlcNAc(b1-2)Man(a1-6)]Man(b1-4)GlcNAc(b1-4)GlcNAc
In short: (§1)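 The binding signal is a Z-score computed within each array and averaged over linkers. Arrays of the same protein sequence at different concentrations or buffers were also averaged together. Data originate from 3228 arrays in the Consortium for Functional Glycomics database, kept only where the protein sequence was available.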

[2] = target: Neu5Ac(a2-6)Gal(b1-4)GlcNAc(b1-2)Man(a1-3)[GlcNAc(b1-2)Man(a1-6)]Man(b1-4)GlcNAc(b1-4)GlcNAc
In short: as §1

[3] = target: Neu5Ac(a2-6)Gal(b1-4)GlcNAc(b1-2)Man(a1-3)[GlcNAc(b1-4)][Neu5Ac(a2-6)Gal(b1-4)GlcNAc(b1-2)Man(a1-6)]Man(b1-4)GlcNAc(b1-4)GlcNAc
In short: as §1

[4] = target: Neu5Ac(a2-6)Gal(b1-4)GlcNAc(b1-2)Man(a1-3)[Man(a1-6)]Man(b1-4)GlcNAc(b1-4)GlcNAc
In short: as §1

[5] = target: Neu5Ac(a2-6)Gal(b1-4)GlcNAc(b1-2)Man(a1-3)[Neu5Ac(a2-3)Gal(b1-4)GlcNAc(b1-2)Man(a1-6)]Man(b1-4)GlcNAc(b1-4)GlcNAc
In short: as §1

[6] = target: Neu5Ac(a2-6)Gal(b1-4)GlcNAc(b1-2)Man(a1-3)[Neu5Ac(a2-6)Gal(b1-4)GlcNAc(b1-2)Man(a1-6)]Man(b1-4)GlcNAc(b1-4)GlcNAc
In short: as §1

[7] = target: Neu5Ac(a2-6)Gal(b1-4)GlcNAc(b1-2)Man(a1-3)[Neu5Ac(a2-6)Gal(b1-4)GlcNAc(b1-2)Man(a1-6)]Man(b1-4)GlcNAc(b1-4)[Fuc(a1-6)]GlcNAc
In short: as §1

[8] = target: Neu5Ac(a2-6)Gal(b1-4)GlcNAc(b1-2)Man(a1-6)Man(b1-4)GlcNAc(b1-4)GlcNAc
In short: as §1

[9] = target: Neu5Ac(a2-6)Gal(b1-4)GlcNAc(b1-2)Man(a1-6)[Gal(b1-4)GlcNAc(b1-2)Man(a1-3)]Man(b1-4)GlcNAc(b1-4)GlcNAc
In short: as §1

[10] = target: Neu5Ac(a2-6)Gal(b1-4)GlcNAc(b1-2)Man(a1-6)[GlcNAc(b1-2)Man(a1-3)]Man(b1-4)GlcNAc(b1-4)GlcNAc
In short: as §1

[11] = target: Neu5Ac(a2-6)Gal(b1-4)GlcNAc(b1-2)Man(a1-6)[Man(a1-3)]Man(b1-4)GlcNAc(b1-4)GlcNAc
In short: as §1

[12] = target: Neu5Ac(a2-6)Gal(b1-4)GlcNAc(b1-2)[Neu5Ac(a2-6)Gal(b1-4)GlcNAc(b1-4)]Man(a1-3)[GlcNAc(b1-4)][Neu5Ac(a2-6)Gal(b1-4)GlcNAc(b1-2)[Neu5Ac(a2-6)Gal(b1-4)GlcNAc(b1-6)]Man(a1-6)]Man(b1-4)GlcNAc(b1-4)GlcNAc
In short: as §1

[13] = target: Neu5Ac(a2-6)Gal(b1-4)GlcNAc(b1-2)[Neu5Ac(a2-6)Gal(b1-4)GlcNAc(b1-4)]Man(a1-3)[GlcNAc(b1-4)][Neu5Ac(a2-6)Gal(b1-4)GlcNAc(b1-4)Man(a1-6)]Man(b1-4)GlcNAc(b1-4)GlcNAc
In short: as §1

[14] = target: Neu5Ac(a2-6)Gal(b1-4)GlcNAc(b1-2)[Neu5Ac(a2-6)Gal(b1-4)GlcNAc(b1-6)]Man(a1-6)[Neu5Ac(a2-6)Gal(b1-4)GlcNAc(b1-2)Man(a1-3)][GlcNAc(b1-4)]Man(b1-4)GlcNAc(b1-4)GlcNAc
In short: as §1

[15] = target: Neu5Ac(a2-6)Gal(b1-4)GlcNAc(b1-3)Gal(b1-3)GlcNAc
In short: as §1

[16] = target: Neu5Ac(a2-6)Gal(b1-4)GlcNAc(b1-3)Gal(b1-4)GlcNAc
In short: as §1

[17] = target: Neu5Ac(a2-6)Gal(b1-4)GlcNAc(b1-3)Gal(b1-4)GlcNAc(b1-2)Man(a1-3)[Neu5Ac(a2-6)Gal(b1-4)GlcNAc(b1-3)Gal(b1-4)GlcNAc(b1-2)Man(a1-6)]GalNAc
In short: as §1

[18] = target: Neu5Ac(a2-6)Gal(b1-4)GlcNAc(b1-3)Gal(b1-4)GlcNAc(b1-3)Gal(b1-4)GlcNAc
In short: as §1

[19] = target: Neu5Ac(a2-6)Gal(b1-4)GlcNAc(b1-3)Gal(b1-4)GlcNAc(b1-3)Gal(b1-4)GlcNAc(b1-2)Man(a1-3)[Neu5Ac(a2-6)Gal(b1-4)GlcNAc(b1-3)Gal(b1-4)GlcNAc(b1-3)Gal(b1-4)GlcNAc(b1-2)Man(a1-6)]GalNAc
In short: as §1

[20] = target: Neu5Ac(a2-6)Gal(b1-4)GlcNAc(b1-3)Gal(b1-4)GlcNAc(b1-3)GalNAc
In short: as §1

[21] = target: Neu5Ac(a2-6)Gal(b1-4)GlcNAc(b1-3)Gal(b1-4)GlcNAc(b1-3)[Neu5Ac(a2-6)Gal(b1-4)GlcNAc(b1-3)Gal(b1-4)GlcNAc(b1-6)]GalNAc
In short: as §1

[22] = target: Neu5Ac(a2-6)Gal(b1-4)GlcNAc(b1-3)Gal(b1-4)GlcNAc(b1-6)[Gal(b1-3)]GalNAc
In short: as §1

[23] = target: Neu5Ac(a2-6)Gal(b1-4)GlcNAc(b1-3)Gal(b1-4)[Fuc(a1-3)]GlcNAc(b1-3)Gal(b1-4)[Fuc(a1-3)]GlcNAc
In short: as §1

[24] = target: Neu5Ac(a2-6)Gal(b1-4)GlcNAc(b1-3)GalNAc
In short: as §1

[25] = target: Neu5Ac(a2-6)Gal(b1-4)GlcNAc(b1-3)[Neu5Ac(a2-6)Gal(b1-4)GlcNAc(b1-6)]GalNAc
In short: as §1

[26] = target: Neu5Ac(a2-6)Gal(b1-4)GlcNAc(b1-6)GalNAc
In short: as §1

[27] = target: Neu5Ac(a2-6)Gal(b1-4)GlcNAc(b1-6)[Gal(b1-3)GlcNAc(b1-3)]Gal(b1-4)Glc
In short: as §1

[28] = target: Neu5Ac(a2-6)Gal(b1-4)GlcNAc(b1-6)[Gal(b1-3)]GalNAc
In short: as §1

[29] = target: Neu5Ac(a2-6)Gal(b1-4)GlcNAc6S
In short: as §1

[30] = target: Neu5Ac(a2-6)GalNAc
In short: as §1

[31] = target: Neu5Ac(a2-6)GalNAc(b1-4)GlcNAc
In short: as §1

[32] = target: Neu5Ac(a2-6)GalNAc(b1-4)GlcNAc6S
In short: as §1

B1: SSR2 (Sclerotium rolfsii) (protein)
chain: MVYKITVRVYQTNPDAFFHPVEKTVWKYANGGTWSITDDQHVLTMGGSGTSGTLRFHADNGESFTATFGVHNYKRWCDIVTNLAADETGMVINQQYYSQKNREEARERQLSNYQVKNAKGRNFQIVYTEAEGNDLHANLIIG
[1]
  glycan array binding signal (z-score): -0.278
[2]
  glycan array binding signal (z-score): 0.385
[3]
  glycan array binding signal (z-score): -0.287
[4]
  glycan array binding signal (z-score): -0.282
[5]
  glycan array binding signal (z-score): -0.289
[6]
  glycan array binding signal (z-score): -0.302
[7]
  glycan array binding signal (z-score): -0.287
[8]
  glycan array binding signal (z-score): -0.283
[9]
  glycan array binding signal (z-score): -0.282
[10]
  glycan array binding signal (z-score): 1.93
[11]
  glycan array binding signal (z-score): -0.288
[12]
  glycan array binding signal (z-score): -0.284
[13]
  glycan array binding signal (z-score): -0.27
[14]
  glycan array binding signal (z-score): -0.273
[15]
  glycan array binding signal (z-score): -0.286
[16]
  glycan array binding signal (z-score): -0.288
[17]
  glycan array binding signal (z-score): -0.289
[18]
  glycan array binding signal (z-score): -0.298
[19]
  glycan array binding signal (z-score): -0.199
[20]
  glycan array binding signal (z-score): -0.283
[21]
  glycan array binding signal (z-score): -0.223
[22]
  glycan array binding signal (z-score): 0.175
[23]
  glycan array binding signal (z-score): -0.282
[24]
  glycan array binding signal (z-score): -0.24
[25]
  glycan array binding signal (z-score): -0.281
[26]
  glycan array binding signal (z-score): -0.259
[27]
  glycan array binding signal (z-score): -0.293
[28]
  glycan array binding signal (z-score): 0.934
[29]
  glycan array binding signal (z-score): -0.277
[30]
  glycan array binding signal (z-score): -0.284
[31]
  glycan array binding signal (z-score): -0.288
[32]
  glycan array binding signal (z-score): -0.285
